Source: PubChem BioAssay AID686971 (National Center for Advancing Translational Sciences (NCATS), 2013)
About 7,500 (2.1%) of roughly 360,000 compounds were called active. The inconclusive results got no clear call from the source; some entries with a clear call stand among them for comparison. Calls come from the whole dose curve; as a rule, active = well fitted cell-killing curve with a large enough effect; inconclusive = small, poorly fitted or top-dose-only effect, or effect the other way, or another doubt; inactive = no such curve, though single readings can be large or run the other way. Potencies of inconclusive entries are left out as doubtful fits.

Test: qHTS for induction of synthetic lethality in tumor cells producing 2HG: qHTS for the HT-1080-IDH1KD cell line
Conditions: HT-1080 IDH1 knockdown viability, ATP luminescence, 48 h; series mostly up to 46.1 µM
Method in brief: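 Knockdown cells (IDH1KD HT-1080) received compounds 2 h after plating at 750 cells/well and were kept 48 h at 37 °C in 5% FBS RPMI. A CellTiter-Glo luminescence read gave % activity for curve fitting.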
Potency is the fitted concentration of half-maximal effect; tags give direction and shape of the fitted curve.

| SMILES | Potency |
| --- | --- |
| CCCCN(C)c1c(C)nc2ccc(C(=O)NCCCn3ccnc3)cn12 | inactive |
| O=C(NCC1CC1)c1cc2c(c(-c3cccc(-c4ccccc4F)c3)n1)[C@H](CCO)N(C(=O)CC1CC1)C2 | inconclusive [cytotoxic, single point] |
| CC12CC(c3ccccc3O1)N(C(=O)c1ccco1)C(=S)N2c1ccc(F)cc1 (stereo not given) | inconclusive [cytotoxic, single point] |
| COc1ccc(OC)c(NC(=O)c2cc3c(cc2Cl)N2CCCCCC2=NS3(=O)=O)c1 | inactive |
| COC(=O)c1cn(NC(=O)c2cc([N+](=O)[O-])ccc2F)c(=O)c2ccccc12 | active: 9.2 µM |
| Cc1ccc(C(=O)CSc2nnc(-c3ccco3)n2Cc2ccccc2)cc1 | inconclusive [cytotoxic, single point] |
| CC(=O)Nc1ccc(Sc2ncccc2C(=O)Nc2ccc(F)cc2)cn1 | inconclusive [cytotoxic, single point] |
| NCCNC[C@@H]1COC2(CCCCCCCCCCC2)O1 | inconclusive [cytotoxic, partial curve] |
| CSc1nc2cc(Oc3cccc(Cl)c3Cl)c(Cl)cc2[nH]1 | inconclusive [cytotoxic, partial curve, poor fit] |
| CCOC(=O)c1ccc(NC(=S)NCCc2ccc(F)cc2)cc1 | inconclusive [cytotoxic, single point] |
| Cc1cc(/C=N/n2cnnc2)c(C)n1-c1ccc(OCc2ccccc2F)cc1 | inconclusive [cytotoxic, partial curve] |
| CCc1cccc(CC)c1NC(=S)NCCc1c(C)[nH]c2ccc(C)cc12 | inactive |
| CC1CCCN(CCCNC(=O)c2cc3c(Cl)nc4ccccc4c3s2)C1 (stereo not given) | active: 23.1 µM |
| COc1ccc(/C=N\NC(=O)c2ccccc2Br)cc1COc1ccccc1 | inconclusive [cytotoxic, single point] |
| CC(=O)c1ccc(Nc2nc3ccccc3nc2NS(=O)(=O)c2cccs2)cc1 | inactive |
| FC(F)(F)c1cccc(N2CCN(C(=S)NC3CCCCC3)CC2)c1 | inconclusive [cytotoxic, single point] |
| COCc1ccc(O)c2ncccc12 | active: 5.8 µM |
| Nc1nc(Sc2ccc([N+](=O)[O-])c3nonc23)c2[nH]cnc2n1 | active: 1.84 µM |
| CS(=O)(=O)Nc1cccc(NC(=O)c2cccc3c(-c4ccc(F)c(F)c4)coc23)c1 | inconclusive [cytotoxic, single point] |
| CC(C)C[C@H]1CN(CCCC[C@H]2CNC(=O)C(=O)N2CCc2ccc(O)cc2)C(=O)C(=O)N1CCc1ccccc1 | inconclusive [rising, single point] |
